PubChem BioAssay AID488969 (Vanderbilt High Throughput Screening Facility, 2010)
“And” between values parts separate entries of the source, which are not always exact repeats. Equal values may be shown once. Over roughly 110,000 compounds, “z-score” has its median near -0.1; the highest 2% begin near 2. This is one part of the list. The source made the active and inactive calls.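 The calls were made as follows: active = z-score in the third read window above 3 or below -3; inactive = the rest.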

molecular target: Metabotropic glutamate receptor 8 (Rattus norvegicus) (UniProt P70579); assay: rat mGluR8 modulators via GIRK flux, primary screen, cell-based, thallium flux, HTS (AID 488969); details: HEK293 rat mGluR8, GIRK (G protein-gated inwardly rectifying potassium channel) thallium flux, FluoZin2; at 10 µM; stronger effect = higher value; submaximal glutamate (EC20) added with thallium
UniProt P70579, sequence (P70579 whole entry, looked up): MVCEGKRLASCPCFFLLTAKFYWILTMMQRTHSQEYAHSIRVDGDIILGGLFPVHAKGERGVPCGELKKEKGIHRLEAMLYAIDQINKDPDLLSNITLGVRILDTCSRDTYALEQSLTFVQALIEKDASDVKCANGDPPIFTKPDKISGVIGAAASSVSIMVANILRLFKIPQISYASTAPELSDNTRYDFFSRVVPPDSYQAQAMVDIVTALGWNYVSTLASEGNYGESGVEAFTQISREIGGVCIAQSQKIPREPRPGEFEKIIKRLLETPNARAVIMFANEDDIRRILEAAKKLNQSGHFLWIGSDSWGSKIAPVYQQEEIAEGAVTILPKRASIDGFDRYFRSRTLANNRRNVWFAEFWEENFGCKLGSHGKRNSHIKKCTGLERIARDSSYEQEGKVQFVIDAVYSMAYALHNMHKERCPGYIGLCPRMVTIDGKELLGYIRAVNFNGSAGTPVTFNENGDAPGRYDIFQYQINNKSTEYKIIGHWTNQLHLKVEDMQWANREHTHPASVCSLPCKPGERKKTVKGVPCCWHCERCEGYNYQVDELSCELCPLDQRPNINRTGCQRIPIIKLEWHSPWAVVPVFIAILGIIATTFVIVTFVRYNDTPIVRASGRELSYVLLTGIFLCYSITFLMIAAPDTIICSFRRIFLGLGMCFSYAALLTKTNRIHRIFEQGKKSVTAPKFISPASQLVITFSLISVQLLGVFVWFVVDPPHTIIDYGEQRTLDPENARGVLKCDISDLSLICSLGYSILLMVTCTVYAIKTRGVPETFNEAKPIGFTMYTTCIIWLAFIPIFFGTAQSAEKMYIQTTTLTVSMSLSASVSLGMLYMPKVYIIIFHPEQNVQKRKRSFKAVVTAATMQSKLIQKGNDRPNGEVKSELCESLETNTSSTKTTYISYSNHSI

Row | Compound | z-score
1 | Cc1ccc(-c2noc(CCC(=O)N3CCCc4ccccc43)n2)cc1 | -0.0319
2 | O=C(Nc1nc(-c2ccncc2)cs1)C1c2ccccc2Oc2ccccc21 | -0.547
3 | CCOCCCNc1ncc2c(n1)CC(c1ccc(C)cc1)CC2=O (stereo not given) | -0.414
4 | Cc1oc(-c2ccc(Cl)cc2)nc1CN1CCC(C(=O)N2CCc3ccccc3C2)CC1 | 0.118
5 | Cc1cccn2c(=O)c(/C=C(\C#N)C(=O)NCc3ccco3)c(N3CCC(C(N)=O)CC3)nc12 | -0.287
6 | COc1cc(-c2nc3ccc4ccccc4c3c3c2CCC3)ccc1O | -0.0978
7 | O=C(O)CN(c1ccc(F)cc1)S(=O)(=O)c1ccc2c(c1)OCCO2 | -0.28
8 | CCN(CCO)Cc1csc2ccc(Br)cc12 | 0.78
9 | COc1ccc(Br)cc1/C=N/NC(=O)CNC(=O)/C=C/c1ccccc1 | -0.0662
10 | CCC(C)NC(=O)N[C@@H](CCSC)C(=O)O (stereo not given in full) | -0.387
11 | Cc1ccc2c(c1)NC(=O)C(CC(=O)NCc1ccc(F)cc1)O2 (stereo not given) | -0.412
12 | O=C1CC(NNC(=O)c2ccccc2)C(=O)N1 (stereo not given) | 0.533
13 | CCN1CCN(C(=O)c2cc3c(-c4ccc(Cl)cc4)nn(C)c3s2)CC1 | -0.146
14 | CCN(CC)S(=O)(=O)c1cccc(C(=O)Nc2cc(C)nn2-c2ccccc2)c1 | -0.00534
15 | Cc1cc(NCCN2CCOCC2)n2nc(C)c(-c3ccc(Cl)cc3)c2n1 | -0.362
16 | c1ccc(-c2ccnc3nc(N4CCN(c5ccccc5)CC4)nn23)cc1 | -0.295
17 | OC1(c2cccc(C(F)(F)F)c2)CCN(c2ccc(-c3ccccc3)nn2)CC1 | 0.309
18 | Cc1ccc(-c2cc(-c3ccccc3)nc(N/N=C/c3cccnc3)n2)cc1 | -0.172
19 | COc1ccc(C(=O)NNC(=O)CN2CCN(c3nc(-c4ccccc4)cs3)CC2)cc1 | -0.232
20 | CCOc1cc(/C=N/NC(=O)c2ccncc2)ccc1OS(C)(=O)=O | -0.0651
21 | O=C(COC(=O)CCC(=O)c1ccc2c(c1)OCCO2)NCc1ccc2c(c1)OCO2 | -0.296
22 | CC12CCC(C(=O)O)(C/C1=N\O)C2(C)C (stereo not given) | 0.0736 and -0.508

Row | Compound | z-score
23 | CCOc1cc(C2CC(=O)NC3=C2C(=O)C(C(=O)OC)C(C)C3)cc(Cl)c1O (stereo not given) | -0.0526
24 | Cc1ccc(NC(=O)CCC(=O)NNC(=O)c2cccs2)c(C)c1 | -0.321
25 | CC(C)(SC(=S)N1CCOCC1)C(=O)O | -0.326
26 | Cn1c(=O)c2ncn(CC(=O)Nc3ccc4oc(-c5cccc6ccccc56)nc4c3)c2n(C)c1=O | 0.0361
27 | COC(=O)C1=C(C)NC(=O)/C1=C\c1ccc2c(c1)OCO2 | -0.536
28 | O=C(Nc1cccc(Cl)c1)Nc1cc(S(=O)(=O)N2CCOCC2)ccc1N1CCCC1 | 0.195
29 | CCOC(=O)c1[nH]c2ccc(OC)cc2c1NC(=O)NC(C)C | -0.0201
30 | COc1ccc(C2/C(=C(\O)c3ccc(OC)c(Cl)c3)C(=O)C(=O)N2CCN(C)C)cc1 (stereo not given) | -0.505
31 | CC(C)NC(=O)NS(=O)(=O)c1cnccc1NC1CC2CCC1C2 (stereo not given) | -0.202
32 | O=C(C1CCN(S(=O)(=O)N2CCCC2)CC1)N1CCCCC1 | -0.0537
33 | CC(NC(=O)c1noc2c1CCCC2)c1ccccc1 (stereo not given) | -1.87
34 | CC(CN(C)Cc1ccccc1)OC(=O)c1ccccc1F (stereo not given) | 0.00558
35 | C=CCn1c(N2CCCCCC2)nc2c1c(=O)n(C)c(=O)n2C | 0.717
36 | Fc1ccc(Br)cc1C1C=C(c2cccnc2)Nc2ncnn21 (stereo not given) | 0.196
37 | COC(=O)C1CCN(C(=O)/C=C/c2ccc(OC)cc2)CC1 | -0.971
38 | Cc1cc(C(=O)N2CCN(CCc3ccccc3)CC2)no1 | active: 8.2
39 | CC1CCN(S(=O)(=O)c2cccc(C(=O)Nc3nccs3)c2)CC1 | 0.0291
40 | COC(=O)CCC(=O)Nc1ccc(OC)cc1 | 0.258
41 | CCCCCc1c(C)c(C#N)c2nc3ccccc3n2c1-n1ccnc1C | -0.4
42 | Cc1c(NC(=O)C(C)OC(=O)c2cc(-c3cccc4ccccc34)nc3ccccc23)c(=O)n(-c2ccccc2)n1C (stereo not given) | -0.576
43 | COC(=O)c1cc(CNC(=O)c2cccc(Cl)c2)ccc1OC | 0.03
44 | CCC(c1nnnn1C1CCCC1)N1CCN(c2ccccc2)CC1 (stereo not given) | 0.793

Row | Compound | z-score
45 | Cc1c(Br)c(C(N)=O)nn1C | 0.474
46 | COc1ccc(-c2c(NC(=O)C(C)C)n(C)c3ccccc3c2=O)cc1 | -0.459
47 | COc1ccc2[nH]c(=O)c(CN(Cc3cccs3)Cc3nnnn3Cc3ccccc3)cc2c1 | -0.257
48 | CCCCOCCCNS(=O)(=O)Cc1ccccc1 | -1.16
49 | COc1cc(NS(=O)(=O)c2ccc(NC(=O)c3ccc(C)o3)cc2)nc(OC)n1 | 0.108
50 | CCc1nc(N)c(C#N)c(-c2ccccc2OC)c1C | -0.316
51 | CCOC(=O)CN1CC23C=CC(O2)C(C(=O)NCc2cccs2)C3C1=O (stereo not given) | 0.147
52 | COc1ccc2oc(C(=O)CCC(=O)O)c(N)c2c1 | 0.292
53 | CC(=O)/C(=N\Nc1ccccc1)Sc1nnc(-c2ccccc2)n1-c1ccccc1 | -0.24
54 | Cn1cnnc1SCC(=O)NCCC(c1ccccc1)c1ccccc1 | -0.225
55 | Cc1nc2ccccc2nc1OCC(=O)Nc1ccc2ccccc2c1 | -0.194
56 | O=C(c1ccco1)N1CCN(CC(O)Cn2c3ccccc3c3ccccc32)CC1 (stereo not given) | -0.422
57 | O=c1cc(-c2cccc([N+](=O)[O-])c2)[nH][nH]1 | -0.0315
58 | CC(C)N1CC(O)=C(c2nc3ccccc3c(=O)[nH]2)C1=N | -0.0374
59 | Cc1cccc(N2C(N)=NC(N)=NC23CCCCC3)c1 | 2.24
60 | CCSc1nnc(NC(=O)CSc2nnc(CNC(=O)c3ccc(OC)cc3)o2)s1 | -0.267
61 | CCCCSc1nnc(-c2c[nH]c3ccccc23)n1C | -0.116
62 | Cn1c(SCc2cc(=O)[nH]c3ccccc23)nnc1-c1ccc(Br)cc1 | -0.053
63 | CNc1nc(C)nc(-n2nc(C)cc2C)n1 | 0.115
64 | Cc1ccnc(NC2(C(F)(F)F)N=C(c3ccccc3)NC2=O)c1 (stereo not given) | -0.132
65 | CCc1nc(SCC(=O)Nc2c(C)n(C)n(-c3ccccc3)c2=O)n[nH]1 | -0.584
66 | COc1ccc(NS(=O)(=O)c2cccc(-c3nnc4n3CCCCC4)c2)cc1 | 1

Row | Compound | z-score
67 | N#CCCn1nnc(-c2ccccc2F)n1 | -0.226
68 | CCN(CC)S(=O)(=O)c1ccc(N2CCOCC2)c(NC(=O)Cc2cccc3ccccc23)c1 | -0.118
69 | Cc1nn(-c2ccccc2)c(Cl)c1C(=O)Nc1c(C)n(C)n(-c2ccccc2)c1=O | 0.11
70 | Cn1c(SCC#N)nnc1-c1cnccn1 | 0.549
71 | O=C(CSc1oc(-c2ccccc2)nc1S(=O)(=O)c1ccc(F)cc1)NCC1CCCO1 (stereo not given) | 0.151
72 | Cn1c(Cn2c(=O)sc3ccccc32)nnc1SCc1ccccn1 | 0.333
73 | N#Cc1c(N2CCCC(O)C2)nc(N)c2c(N)nc3c(c12)CC(=O)N3C12CC3CC(CC(C3)C1)C2 (stereo not given) | -0.293
74 | COc1ccc(C2CC(c3ccc(C)cc3)Nc3nc(N)nn32)cc1 (stereo not given) | -0.0533
75 | O=C(COC(=O)CSc1ccc2ccccc2c1)NC1CC1 | -0.088
76 | CCOc1ccccc1C(=O)NC(CO)C(=O)O (stereo not given) | -0.109
77 | Cn1c(SCc2ccc(C(=O)Nc3nccs3)cc2)nnc1-c1ccccc1 | -0.332
78 | CCNC(=O)C/C(C)=N/NC(=O)C12CC3CC(CC(C3)C1)C2 | -0.0248
79 | Cc1csc(NC(=O)c2c(-c3c(Cl)cccc3Cl)noc2C)n1 | 0.117
80 | COc1ccc(-n2c(O)c(/C=N/n3cnnc3)c3ccccc3c2=O)cc1 | -0.201
81 | O=C(CSc1ccccc1)Nc1ccc(NC(=O)c2ccco2)cc1 | 0.0534
82 | CCCC(CCC)C(=O)Nc1cccc(C(=O)O)c1 | -0.358
83 | Cc1ccsc1/C=C/C1=Cc2c(sc(NC(=O)CSc3n[nH]c(N)n3)c2C#N)C(C)(C)C1 | -0.0316
84 | Cc1onc(C(=O)N2CCC(C(N)=O)CC2)c1-c1ccccc1Cl | 1.67
85 | Cc1nc2sc(C#N)c(N)c2c2c1CCCC2 | -0.138
86 | O=C1c2ccccc2-c2nc3ccccc3nc21 | 0.224
87 | O=C(Nc1ccccc1)c1ccc(N2CCN(c3ccccc3)CC2)c(S(=O)(=O)N2CCOCC2)c1 | -0.142
88 | CCOc1cc(/C=N\NC(=O)c2ccc(NC(=O)C(C)(C)C)cc2)ccc1OC(=O)c1ccc(OC)cc1 | -0.135

Row | Compound | z-score
89 | O=C(Cn1cncc1-c1ccc([N+](=O)[O-])cc1)Nc1ccccc1F | -0.169
90 | Cc1nc2ccc(NC(=O)NCCO)cc2s1 | 0.213
91 | Cc1ccc(C)c(C(=O)CN2C(=O)c3ccccc3S2(=O)=O)c1 | 0.179
92 | COC(=O)c1cc(-c2ccc(Br)cc2)n[nH]1 | 0.097
93 | CCOC(=O)c1ccc2[nH]c3c(c2c1)CCCC3C(=O)OCC (stereo not given) | -0.158
94 | CCOc1cc(Cl)c(S(=O)(=O)NCc2ccccn2)cc1Cl | 0.225
95 | Nc1cc(C(=O)OCC(=O)N2CCCC2)ccc1Cl | -0.0441
96 | COc1ccc(C(=O)CSc2nc3ccccc3n2CC(=O)c2ccccc2)cc1 | -0.112
97 | Nc1nc(SCC(=O)NNc2c(Cl)cc(Cl)cc2Cl)n[nH]1 | -0.396
98 | O=C(N/N=C/c1ccc[nH]1)c1cccc(Br)c1 | 0.583
99 | C=CCN1C(=NC(=O)CC)SC2CS(=O)(=O)CC21 (stereo not given) | 0.204
100 | Cn1c(NCCCN2CCOCC2)nc2c1c(=O)n(Cc1ccc(Cl)c(Cl)c1)c(=O)n2C | -0.0906
101 | Cc1ccc(-c2nn(C)c(=O)c3ccccc23)cc1CNC(=O)/C=C/c1ccccc1 | -2.07
102 | COC(=O)c1c(NC(=O)Cc2cccs2)sc(C(=O)N2CCCCC2)c1C | -1.56
103 | COc1ccc(C)cc1S(=O)(=O)N(CC(=O)Nc1cccc([N+](=O)[O-])c1)c1cc(C)cc(C)c1 | -0.0777
104 | Cc1c(C(=O)NCc2ccccc2)oc2ccc(S(=O)(=O)N3CCC4(CC3)OCCO4)cc12 | -0.293
105 | COc1ccc(NC(=O)N2c3ccccc3CC2C)cc1OC (stereo not given) | -0.233
106 | O=C(CCSCCc1ccccn1)Nc1ccccn1 | -0.136
107 | CCN(C1CCCCC1)S(=O)(=O)c1ccc(OC)c(C)c1 | -0.163
108 | COc1ccc(-c2nn(-c3ccccc3)cc2CNC(=O)c2cccc([N+](=O)[O-])c2)cc1 | -0.207
109 | C/C(CC(=O)Nc1ccc(Cl)cc1Cl)=N\NC(N)=S | -0.16
110 | O=C(NCCN1CCN(Cc2ccccc2)CC1)c1cc2c(=O)[nH]c3ccccc3c2s1 | 2.15
